Screen size: about 310,000 compounds; about 14,000 (4.5%) showed an effect of 50% or more. Effects have a minus sign here. This is one part of the list.
target: human ether-à-go-go-related gene (hERG) potassium channel (human, UniProt Q12809); assay: primary screen, population patch clamp on CHO cells stably expressing hERG
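Also: peak tail current of the secondary pulse compared with the same well before compound.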

Sequence of human ether-à-go-go-related gene (hERG) potassium channel (Q12809 whole entry, looked up): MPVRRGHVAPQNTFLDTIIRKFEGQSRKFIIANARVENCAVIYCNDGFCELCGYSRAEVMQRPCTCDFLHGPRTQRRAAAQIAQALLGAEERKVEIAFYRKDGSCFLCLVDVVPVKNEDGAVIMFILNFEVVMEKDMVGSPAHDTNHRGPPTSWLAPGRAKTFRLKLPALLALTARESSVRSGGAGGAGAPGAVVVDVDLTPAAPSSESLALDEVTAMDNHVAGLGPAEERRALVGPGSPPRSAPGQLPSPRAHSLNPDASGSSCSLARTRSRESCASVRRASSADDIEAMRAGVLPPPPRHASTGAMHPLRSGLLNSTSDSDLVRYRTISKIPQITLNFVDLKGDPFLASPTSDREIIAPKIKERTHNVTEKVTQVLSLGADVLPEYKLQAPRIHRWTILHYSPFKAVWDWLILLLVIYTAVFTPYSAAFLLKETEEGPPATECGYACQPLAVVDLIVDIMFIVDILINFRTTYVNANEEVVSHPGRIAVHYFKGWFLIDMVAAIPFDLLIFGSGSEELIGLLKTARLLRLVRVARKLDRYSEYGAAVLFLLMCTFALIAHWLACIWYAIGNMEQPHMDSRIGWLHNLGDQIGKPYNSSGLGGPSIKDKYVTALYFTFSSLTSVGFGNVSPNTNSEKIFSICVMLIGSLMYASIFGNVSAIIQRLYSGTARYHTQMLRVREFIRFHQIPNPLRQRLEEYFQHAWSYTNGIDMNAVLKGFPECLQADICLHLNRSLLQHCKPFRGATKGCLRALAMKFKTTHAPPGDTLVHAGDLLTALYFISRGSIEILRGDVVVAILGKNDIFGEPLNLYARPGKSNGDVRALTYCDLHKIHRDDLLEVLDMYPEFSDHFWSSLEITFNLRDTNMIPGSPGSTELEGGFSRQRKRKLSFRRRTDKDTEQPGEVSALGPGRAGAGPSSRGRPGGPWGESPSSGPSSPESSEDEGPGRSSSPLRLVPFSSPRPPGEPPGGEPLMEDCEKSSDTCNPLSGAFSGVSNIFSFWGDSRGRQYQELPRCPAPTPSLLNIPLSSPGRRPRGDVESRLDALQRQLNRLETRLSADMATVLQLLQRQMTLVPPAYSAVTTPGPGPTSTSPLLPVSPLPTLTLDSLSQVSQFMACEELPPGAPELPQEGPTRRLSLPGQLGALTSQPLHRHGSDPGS

SMILES	hERG current change (%, negative = inhibition) at 10uM [%]
CC(OC(=O)c1cccc(-n2cnnn2)c1)C(=O)Nc1ccc(F)cc1Cl (stereo not shown)	-34.6
COc1ccccc1C(=O)NC(=O)COc1ccc([N+](=O)[O-])cc1	9.66
Cc1ccc(N(CCC#N)C(=O)CSc2nnc3ccccn23)cc1	-8.44
Cc1ccc(N(CN2C(=O)C3C4CCC(C4)C3C2=O)C(=O)c2ccco2)cc1 (stereo not shown)	2.88
CSc1nc(N(C)C)nc(N2CC(=O)N(CCNS(=O)(=O)c3ccc(C)cc3)C2=N)n1	-1.59
CC1CCc2c(sc(NC(=O)CSc3ncnc4c3cnn4-c3ccccc3Cl)c2C#N)C1 (stereo not shown)	13.2
C=CCOc1ccccc1CN1CCC(Cc2ccccc2)CC1	-70.3
O=C(CSc1n[nH]c(=O)n1-c1cccnc1)Nc1ccccc1Cl	6.68
COc1ccccc1NC(=O)CC1S/C(=N/N=C2\CCCc3ccccc32)NC1=O (stereo not shown)	7.92
COC(=O)C1C(=O)C2=C(CC1C)NC(C)=C(C(=O)OCCOc1ccccc1)C2c1ccc(C)o1 (stereo not shown)	5.84
O=C(CNC(=O)c1ccccc1)NC1(C(=O)NC2CCCCC2)CCCCC1	-6.42
Cc1ccc(-c2nc3ccccc3c(=O)n2-c2cccnc2)cc1	-6.99
CCOc1ccc(NC(=O)CN(C)c2ccc(S(=O)(=O)N3CCOCC3)cn2)cc1OCC	10.4
Cc1cc(=O)n(CCCO)c(O)c1C#N	14.3
Cc1sc2ncnc(SCC(=O)NC3CCCC3)c2c1C	-0.805
O=C1CCN(Cc2ccc(O)cc2)CCN1[C@H](CO)Cc1ccccc1	2.51
Cc1cc(N2CCN(c3ccc(F)cc3)CC2)n2ncnc2n1	-57.6
FCCCOc1ccc(/C=N/OCc2ccc(Cl)cc2)cc1	-3
CSc1ccccc1NC(=O)CSCc1nc2sc(C)c(C)c2c(=O)[nH]1	-2.15
O=Cc1c(N2CCC3(CC2)OCCO3)nc2ccccn2c1=O	12

SMILES	hERG current change (%, negative = inhibition) at 10uM [%]
COc1ccccc1CN(Cc1cccnc1)S(=O)(=O)c1ccc(-n2cnnn2)c(OC)c1	-63
COc1cc(OC)c(OC)cc1/C=C1\CCC(C2CCCC2)C1=O (stereo not shown)	0.112
CCCOc1ccc(Cc2nc(N)nc(N)n2)cc1	5.56
CN(CC(=O)Nc1ccccc1C(F)(F)F)C(=O)CC1OC(=O)c2ccccc21 (stereo not shown)	9.27
COC(=O)c1ccc(C#Cc2ccccc2)o1	12.2
COc1ccccc1CN(C)C(C)C(=O)Nc1cccc(C(C)=O)c1 (stereo not shown)	-12.2
NCC12CC3CC(C1)CC(CN)(C3)C2	1.08
CCOC(=O)N1CCN(CCC(=O)Nc2cccc(Cl)c2C)CC1.Cl	5.59
CC(C)(C)NC(=O)Cn1c(SCC(=O)NC2CC2)nc2ccccc21	4.14
N#Cc1ccccc1NC(=O)COC(=O)CCc1ccc(S(=O)(=O)N2CCCCC2)cc1	-5.4
O=C(CN(C(=O)c1ccc(Cl)cc1)N1C(=O)C2C3C=CC(C3)C2C1=O)c1cccs1 (stereo not shown)	10.7
Cc1ccc(C(=O)N2CCc3ccccc32)cc1	-7.42
CCc1ccccc1OCC(=O)Nc1cccc(S(=O)(=O)NC2=NCCC2)c1	-0.499
COc1cc(C(=O)OC2C[C@H]3CC[C@@H](C2)N3C)ccc1O (stereo partly shown)	-7
CCNc1nc(C)c(CN(C(C)=O)c2ccccc2)nc1C#N	-7.57
CCOc1ccc(NC(=O)CN(C)C(=O)CCSc2ccc(F)cc2)cc1OCC	-34.4
CC1CCCC(C)N1S(=O)(=O)c1ccc(Cl)cc1 (stereo not shown)	-3.38
CCn1nnnc1SCC(=O)NCc1ccco1	13.2
O=C(O)CN1C(=O)CC(c2ccccc2)CC1=O	20.6
CC(=O)Nc1ccc(NC(=O)CSc2nnc(-c3ccc(NS(C)(=O)=O)cc3)n2C)cc1C	17.2

SMILES	hERG current change (%, negative = inhibition) at 10uM [%]
COCCn1c(-c2ccc(SC)cc2)nc2c1c(=O)[nH]c(=O)n2CC(C)C	-19.3
CN(/N=C/c1ccc(N(C)C)cc1)C1=NS(=O)(=O)c2ccccc21	20.6
COc1ccc(NC(=O)Cn2nc(C)c3ccccc3c2=O)cc1	-1.81
COc1ccc(C(=O)NCCC2=CCCCC2)cc1OC1CCN(C(C)C)CC1	-78.1
CC1CCCCN1C(=O)/C(=C\c1ccccc1)c1ccccc1 (stereo not shown)	-17.4
Cc1cccc(OCCCC(=O)Nc2nc3ccccc3[nH]2)c1	18.9
O=S(=O)(NC(=S)NC1CCCCC1)c1ccccc1	20.1
N#Cc1ccc(OCC(=O)n2cc(C(=O)c3cc(Cl)cc(Cl)c3O)cn2)cc1	17.5
CCOC(=O)CCNC(=O)CCNC(=O)C(c1ccccc1)c1ccccc1	-9.62
O=C(c1ccc(Br)cc1)c1coc2ccc(O)cc12	-5.64
COc1ccccc1OCC(=O)N1CCN(C(=O)c2ccco2)CC1	-0.256
CN(C)c1cccc(C(=O)Nc2nc3ccccc3[nH]2)c1	-8.39
N#C/C=C1\Sc2ccccc2C(=O)N1CC(=O)N1CCN(S(=O)(=O)c2ccccc2)CC1	-3.58
CCNC(=O)NCCc1c[nH]c2ccc(Cl)cc12	-14.6
COC(=O)c1ccc(Cl)c(NC(C)=O)c1	5.86
COc1ccc(N2CCN(CC(O)COCCOc3ccc(Br)cc3)CC2)cc1.Cl (stereo not shown)	-69.1
Cc1ccc(C(=O)Oc2cccnc2)cc1[N+](=O)[O-]	0.932
CC(C)C(=O)N1CCN(c2ccc(NC(=O)c3cccs3)cc2Cl)CC1	-14.7

From article PMC4336329 (PLoS ONE, 2015)
